Source: the supplement of paper PMC11417369
± gives the standard deviation of the averaged measurements. Some of the results follow.

These sequences were tested on PfAP2-I AP2 domain 3 (GST-tagged) (assay: gcPBM binding intensity (ln(normalized median fluorescence intensity)); higher = stronger DNA binding).
Summary of the method: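 Binding of GST-tagged P. falciparum DNA-binding domains, expressed in E. coli and used at about 25 μg on average, was carried out for 1 h in 1× PBS containing 1% milk, 0.2 mg/ml BSA, 0.5% salmon testes DNA and 0.03% Triton X-100. The target was an Agilent 4 × 180k array of primer-extended double-stranded 36-bp intergenic genomic probes plus negative controls, read with Alexa488 anti-GST antibody at 488 nm. Binding intensity is the highest Masliner-normalised natural-log median intensity across replicate spots of either probe orientation.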

Sequence | gcPBM binding intensity (ln)
CTTTTGTCATTCTTTTGTACACAGTTTGAAATATGT [XGTACX_site1457] | 8.3 ± 0.33
ATAATAAATAAATAATGTACATATGAAAGAATAAAT [XGTACX_site8355] | 8.18 ± 0.7
ATAAAAAAGAAACAAACACACATACATACAAACAAA [CACACA_site4256] | 7.99 ± 0.38
TACATTTATATATATACACACACACTAATAAAAAAA [CACACA_site8845] | 8 ± 0.54
ATATGTATATATAAGGTGCAGAAAGGTGGGCAAAAG | 10.8 ± 0.39
TAAATACAGATATATACACACATATATATATTTTAT [CACACA_site5970] | 7.5 ± 0.35
TCATATATTTTAATATGTACACATTTTTTTGGTATA [XGTACX_site8695] | 7.79 ± 0.35
TACAGACTAAAATACACACACACACGCACATATATA [CACACA_site7875] | 8.07 ± 0.49
TTTTTCTTTATTAGCACACATAATATTATATATGTG [CACACA_site2629] | 8.84 ± 0.44
ATATAAACAATATTTTGTACATAATTTTATGAGCAT [XGTACX_site6933] | 7.8 ± 0.29
AAAGAAAGAAGAAATTGTACATAATAAATAAGTAAA [XGTACX_site3311] | 7.61 ± 0.5
GCATATGTTTATTGCACACACCAAAAAGAAAACATA [CACACA_site4384] | 10.4 ± 0.61
ATTATTTGTTTAATGAGTACGAAGACAAATTTTACC [XGTACX_site5223] | 8.12 ± 0.49
TATATACACAGACACACACACACATACACGCACATA [CACACA_site6909] | 8.33 ± 0.23
GTACTATACAAAGATGATAATCAATATATATATATA [XGTACX_negctrl_site264] | 9.38 ± 0.62
AAAGGAAAAAAAAGCACACACAATATTACTTGAAAT [CACACA_site2588] | 7.97 ± 0.63
TTCACCAGTTGGTAAACATGCAATTTTCCATACAAG [TGCATGCA_site267] | 7.75 ± 0.71
AAAAAAAACGGACACACACACATACCCATACATACA [CACACA_site5574] | 8.21 ± 0.11
ATATAAATACATAAATGTACTTACCATTTAAATATG [XGTACX_site5254] | 7.73 ± 0.44
ATTCTTTTAAAATAGGTGCTAAAAATAATATGTTAC | 9.595 ± 0.035
TACAATAAGGATAAGTGTACATATGTGCATACATAT [XGTACX_site7188] | 9.03 ± 0.085
AAAAATTATAGAAAAGTGCAATACATGTTACACCAT | 10.28 ± 0.078
CATATAGCATAATCATGTACACATACAACAAATAGG [XGTACX_site1589] | 8.14 ± 0.4

Sequence | gcPBM binding intensity (ln)
ATTCTCCAAGTTTGATGTACACATATGACGACGGCG [XGTACX_site4912] | 7.92 ± 0.38
TATAATAATTATACATGTACACATTATTTGGATAAA [XGTACX_site5552] | 7.86 ± 0.11
TTTTTATATTTAATGTGTCCTCACTTAAAAGGATGA [XGTACX_site2744] | 7.7 ± 0.4
AATATATTTTTTGGTTGTACAGAGATCTTTGTAGAA [XGTACX_site1707] | 7.76 ± 0.18
ATATTTATTTATTTATGTACGCACACAGTTGATATT [XGTACX_site5808] | 8.53 ± 0.25
CACTATATAAGAACCTGTACTCAATTTTGCAATATA [XGTACX_site7238] | 7.92 ± 0.54
AAATTATATTCAAGTGCATGTAACTTATTATTATAT [TGCATGCA_site526] | 8.27 ± 0.45
TAATAATAAAAATAAACACACATATATATGTATATA [CACACA_site2853] | 7.44 ± 0.4
TATATTTTCCTGCAAACACACATATAAATGTGTAGA [CACACA_site533] | 8.22 ± 0.84
TATAATCAATATGTAACACACAAAAGTTATATACTT [CACACA_site7368] | 7.58 ± 0.5
AACATGCTCAACTTTTTTTTTTTTTTTTTTTTTTTT [CACACA_negctrl_site1617] | 9.705 ± 0.064
GTAAAAATAAAAACTGGTACACAAGTTGTTATAAAA [XGTACX_site502] | 7.71 ± 0.65
AAAATAAAATAAAAGTGTACGTTTTAAGAACATTGA [XGTACX_site2382] | 7.76 ± 0.48
CTTTTTTGTTAAAGTGTGCGCAATAGTTATAGACTT [GTGCAC_site9670] | 9.48 ± 0.14
AATCTTAAAAATATATGTACTAAAAAAAAAAAAAAT [XGTACX_site6195] | 7.77 ± 0.44
ATGAATAAATTAAAAATGCACACTTTGATGGGTACA [CACACA_site2157] | 8.84 ± 0.099
TATATATATATATATACACACTATATAATTCAAACA [CACACA_site4712] | 9.46 ± 0.45
TTACGATTATACAAAAGTACATGTATTACACAATAT [XGTACX_site5138] | 8.09 ± 0.36
TATACCAGTTTTAAAAGTACTTGTGCATAAAAAATA [XGTACX_site4794] | 10.4 ± 0.17
AAACTTGTAAGAAACACACACACACCCATATATATA [CACACA_site797] | 8.34 ± 0.6
AAATTGGGGCTTGTTACACACTTAGTGGGAGTTCTA [CACACA_site4485] | 8.15 ± 0.58
AACATATATATATATACATGCATATGAACAACGAAT [TGCATGCA_site93] | 8.09 ± 0.73
TGTATAAATATAATCACACATATATATATATATATA [CACACA_site4365] | 9.32 ± 0.53

Sequence | gcPBM binding intensity (ln)
TATAAAAATGTTTACACACACACATAAATATATTTT [CACACA_site2512] | 7.79 ± 0.5
TTTTTTTTTTTTCTGAGTACGAAAAATAGAGATAGA [XGTACX_site3825] | 8.04 ± 0.45
AAGTTACAAAATCAAAAGGAAAAAATATAAAATAAT [CACACA_negctrl_site561] | 7.63 ± 0.69
CAAGAAAATTGACACACACACATATTTATATTTATA [CACACA_site7766] | 7.66 ± 0.56
TTTTTTTAATTAGTTTGTACATATTGTTATAATATA [XGTACX_site6294] | 8.04 ± 0.057
CATGTTATGATTCCATGTACTTATAGCATTAAAAAA [XGTACX_site8939] | 7.81 ± 0.42
AAAAAAAAATACATATGTACTTATGTATAATGTTGT [XGTACX_site8104] | 7.72 ± 0.31
ATTATACCACCCGATATACACACTTGTAGACATCTT [CACACA_site7944] | 8.22 ± 0.42
TATATTAAACCATGTAGTACCTTGAATAAATATTAT [XGTACX_site8254] | 7.81 ± 0.28
ATAAAAAGGAGACACACACACACACGCATATTTATA [CACACA_site6551] | 7.97 ± 0.4
TTAATTACATGTAATTGTACTTAATTATAAGACATT [XGTACX_site464] | 7.71 ± 0.28
TATTACTTATAAATTACACACAAATGATTGAACATT [CACACA_site2259] | 7.59 ± 0.57
TATACCTTTTTATTCACACATATATGTCATATGTCA [CACACA_site5423] | 8.03 ± 0.52
TTAAAATAAAGAAAATGTACATAAATAAAAATAAAG [XGTACX_site2280] | 8.35 ± 0.45
TTTTACCTAAATATCACACATATTTAAATATATATA [CACACA_site5597] | 7.89 ± 0.55
CAACTAATATTAAAACGTACATAAATATTTAACAGA [XGTACX_site625] | 7.67 ± 0.57
ATCACATATATATATAATATATATATGTATATATTT [GTGCAC_negctrl_site249] | 7.34 ± 0.41
AAAAAAAATATATATGCACACACAAAAAAACAAATT [CACACA_site8349] | 9.3 ± 0.22
ATATATATATATATATGTACATATATTTTTATTTAT [XGTACX_site3508] | 9.19 ± 0.42
AGTGATAATTTAAAAAGTACAAATGAAATTTAGCTA [XGTACX_site3375] | 7.63 ± 0.47
TATATATAAAGCAGTACACACATTTATTTTAGATAC [CACACA_site3387] | 8.31 ± 0.4
AGAGAGAAAGCTATAACATGCAAAAATTTTTAGAAC [TGCATGCA_site420] | 8.08 ± 0.79
ATACAAATAAAAAAAAAAATTATAAAATTATAAAAT [CACACA_negctrl_site914] | 7.41 ± 0.4

Sequence | gcPBM binding intensity (ln)
CATATATATATATATTGTACACATTTTTTATAAAAA [XGTACX_site2526] | 8.17 ± 0.31
TATTTGCAATATAACACACACAAAAAAAGACTCGGA [CACACA_site6891] | 8.32 ± 0.54
AATTATACATTATATTGTACATATGAATAATTAAAA [XGTACX_site6829] | 7.61 ± 0.54
TATATGTAATATATATGTACGTATAATATAATATTG [XGTACX_site8620] | 7.93 ± 0.48
TATATAATACAAAAGGGTACATTAACATATTATATA [XGTACX_site3196] | 7.76 ± 0.5
CTATTATCGGTTCCTACACACAAATATAGATGTCTA [CACACA_site7651] | 7.81 ± 0.54
TTTCACATATATATGGTGCATATTTTATGTGTAAAT [GTGCAC_site9937] | 9.95 ± 0.52
TTTGTAACTTCTTTCACACATATATATATATATATA [CACACA_site5603] | 9.59 ± 0.42
GTGTGCAAAAATTGTTGTACATTATATATAAAAAAA [XGTACX_site3246] | 9.41 ± 0.34
AACAAAAAAAAAAAATGTACATATATATAATATATT [XGTACX_site3829] | 7.5 ± 0.36
CCACAAGCAGCGGAAACATGCATATGTTGAAATAAT [TGCATGCA_site610] | 7.76 ± 0.73
TCATTTCACAAACACACACACACAATATATTTCCTT [CACACA_site3905] | 8.09 ± 0.54
TAATAATATTATTAATGTACAAATATATATACATAT [XGTACX_site7348] | 7.58 ± 0.48
TATATATATATATATTGTACCCTTTTCAAACTTCTC [XGTACX_site2812] | 9.22 ± 0.29
GTTAAGAATATGTGTACACATATACATAAATACATA [CACACA_site4254] | 8.09 ± 0.35
ACCTCACAAATGAATACACACAAACATATATATTTA [CACACA_site4976] | 7.87 ± 0.71
AATATCATCCTTTTTTTTTATAAAATTTAAAATATA [CACACA_negctrl_site844] | 7.82 ± 0.61
TATAAGAGAATATATACACACAAAAATAAATACAGT [CACACA_site5000] | 8.2 ± 0.67
ATTTTATGTTGAAAGTGTACGTATTAATATGTAGAA [XGTACX_site245] | 8.33 ± 0.35
TATTTTATTATACCAAGTACAAAATTTAAATATGAA [XGTACX_site5478] | 7.67 ± 0.19
